EC50 data for 4 molecules are collected here from patent US20250304706A1 (Astellas, published 2025).

The target in the assay is T1, CD3εδ complex protein (human; alpaca, UniProt P07766 23-126; P04234 22-105).
T1 construct: they are not part of the secreted protein; also called human CD3; CD386 complex protein
The experiment in a line: ELISA, CD3 complex immobilized. As to the method: Binding activities of the anti-TSPAN8/anti-CD3 bispecific antibodies BTE-0001 to BTE-0067 to CD3 were evaluated by the ELISA. ELISA was performed according to a conventional method. The […] complex protein obtained in Example 1-3 was immobilized on a plate. BTE-0001 to BTE-0067 were used as the test antibodies. As a secondary antibody, Goat anti-Human IgG Fc, Multi-Species SP ads-HRP (2014-05, available from SouthernBiotech) was used. TMB+Substrate-Chromogen (S1599, available from Dako) was used as the detection reagent. Infinite M200pro (available from Tecan) was used to measure the absorbance. The EC50 values were calculated using variable slope model (four parameters) in GraphPad Prism with the maximum value in the same plate fixed at the top and the minimum value in the blank in the same plate fixed at the bottom. Since BTE-0001 was always measured in each plate as a control, only the EC50 value of BTE-0001 was expressed as the average value of a plurality of plates.
Binding activities of the 66 anti-TSPAN8/anti-CD3 bispecific antibodies to CD3 were evaluated by the ELISA described in Example 1-4.
Background: ELISA stands for enzyme-linked immunosorbent assay.

Chain of UniProt P07766 (P07766 23-126 limits assumed, stated change not applied, form in doubt, chain 1 of 2): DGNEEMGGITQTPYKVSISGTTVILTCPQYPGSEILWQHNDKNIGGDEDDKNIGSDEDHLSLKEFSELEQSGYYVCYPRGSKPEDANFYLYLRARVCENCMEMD
Chain of UniProt P07766 (P04234 22-105 limits assumed, stated change not applied, form in doubt, chain 2 of 2, further chain): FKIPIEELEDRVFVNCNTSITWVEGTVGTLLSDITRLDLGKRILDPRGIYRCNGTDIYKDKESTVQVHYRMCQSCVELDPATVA

B1: BTE-0085 (bispecific antibody)
heavy: QVQLVESGGGVVQPGGSLRLSCAASGFTFSSYGMHWVRQAPGKGLEWVAVIWYDGRNKYYADSVKGRFTISRDNSKNTLYLQMNSLRAEDTAVYYCTRDHSGSGSYYIDYWGQGTLVTVSSASTKGPSVFPLAPSSKSTSGGTAALGCLVKDYFPEPVTVSWNSGALTSGVHTFPAVLQSSGLYSLSSVVTVPSSSLGTQTYICNVNHKPSNTKVDKKVEPKSCDKTHTCPPCPAPEAAGGPSVFLFPPKPKDTLMISRTPEVTCVVVDVSHEDPEVKFNWYVDGVEVHNAKTKPREEQYNSTYRVVSVLTVLHQDWLNGKEYKCKVSNKALAAPIEKTISKAKGQPREPQVYTLPPSRDELTKNQVSLSCAVKGFYPSDIAVEWESNGQPENNYKTTPPVLDSDGSFFLVSKLTVDKSRWQQGNVFSCSVMHEALHNHYTQKSLSLSPGK
light: EIAMTQSPATLSVSPGERATLSCRASQSVSSNLAWYQQKPGQAPRLLIYGASTRATGLPARFSGSGSGTEFTLTISSLQSEDFAVYYCQQYNNFWTFGQGTKVEIKRTVAAPSVFIFPPSDEQLKSGTASVVCLLNNFYPREAKVQWKVDNALQSGNSQESVTEQDSKDSTYSLSSTLTLSKADYEKHKVYACEVTHQGLSSPVTKSFNRGEC
scFv-Fc: EVQLVESGGGLIQPGGSLRLSCAASGFTFNTYAMGWVRQAPGKGLEWVARIRSKYNNYATYYADSVKDRFTISRDDSKSTLYLQMNNLRAEDTAVYYCVRHGNFGNSYVSWFAYWGQGTLVTVSSGKPGSGKPGSGKPGSGKPGSQAVVTQEPSLTVSPGGTVTLTCRSSTGAVTTSNYANWVQQKPGQAPRGLIGGTNKRAPGVPARFSGSLLGDKAALTLSGAQPEDEAEYYCALWYSNLWVFGGGTKVTVL[human IgG1 Fc with C220S L234A L235A P329A T366W (EU numbers) cut from this listing]
notes: anti-TSPAN8/anti-CD3
For orientation: EC50 means the concentration needed to bring the measured effect to its halfway point. In the case of B1, the EC50 worked out at 0.729 µg/mL.

B2: BTE-0092 (bispecific antibody)
heavy: QVQLVESGGGVVQPGGSLRLSCAASGFTFSSYGMHWVRQAPGKGLEWVAVIWYDGRNKYYADSVKGRFTISRDNSKNTLYLQMNSLRAEDTAVYYCTRDHSGSGSYYIDYWGQGTLVTVSSASTKGPSVFPLAPSSKSTSGGTAALGCLVKDYFPEPVTVSWNSGALTSGVHTFPAVLQSSGLYSLSSVVTVPSSSLGTQTYICNVNHKPSNTKVDKKVEPKSCDKTHTCPPCPAPEAAGGPSVFLFPPKPKDTLMISRTPEVTCVVVDVSHEDPEVKFNWYVDGVEVHNAKTKPREEQYNSTYRVVSVLTVLHQDWLNGKEYKCKVSNKALAAPIEKTISKAKGQPREPQVYTLPPSRDELTKNQVSLSCAVKGFYPSDIAVEWESNGQPENNYKTTPPVLDSDGSFFLVSKLTVDKSRWQQGNVFSCSVMHEALHNHYTQKSLSLSPGK
light: EIAMTQSPATLSVSPGERATLSCRASQSVSSNLAWYQQKPGQAPRLLIYGASTRATGLPARFSGSGSGTEFTLTISSLQSEDFAVYYCQQYNNFWTFGQGTKVEIKRTVAAPSVFIFPPSDEQLKSGTASVVCLLNNFYPREAKVQWKVDNALQSGNSQESVTEQDSKDSTYSLSSTLTLSKADYEKHKVYACEVTHQGLSSPVTKSFNRGEC
scFv-Fc: EVQLVESGGGLIQPGGSLRLSCAASGFTFSDHAMNWVRQAPGKGLEWVARIRSKYNNYATYYADSVKDRFTISRDDSKSTLYLQMNNLRAEDTAVYYCVRHGNFGNSYVSWFAYWGQGTLVTVSSGKPGSGKPGSGKPGSGKPGSQAVVTQEPSLTVSPGGTVTLTCRSSTGAVTTSNYANWVQQKPGQAPRGLIGGTNKRAPGTPARFSGSLLGDKAALTISGAQPEDEAEYYCALWYSNLWVFGGGTKVTVL[human IgG1 Fc with C220S L234A L235A P329A T366W (EU numbers) cut from this listing]
notes: anti-TSPAN8/anti-CD3
B2 returned an EC50 of 0.187 µg/mL.

B3: BTE-0090 (bispecific antibody)
heavy: QVQLVESGGGVVQPGGSLRLSCAASGFTFSSYGMHWVRQAPGKGLEWVAVIWYDGRNKYYADSVKGRFTISRDNSKNTLYLQMNSLRAEDTAVYYCTRDHSGSGSYYIDYWGQGTLVTVSSASTKGPSVFPLAPSSKSTSGGTAALGCLVKDYFPEPVTVSWNSGALTSGVHTFPAVLQSSGLYSLSSVVTVPSSSLGTQTYICNVNHKPSNTKVDKKVEPKSCDKTHTCPPCPAPEAAGGPSVFLFPPKPKDTLMISRTPEVTCVVVDVSHEDPEVKFNWYVDGVEVHNAKTKPREEQYNSTYRVVSVLTVLHQDWLNGKEYKCKVSNKALAAPIEKTISKAKGQPREPQVYTLPPSRDELTKNQVSLSCAVKGFYPSDIAVEWESNGQPENNYKTTPPVLDSDGSFFLVSKLTVDKSRWQQGNVFSCSVMHEALHNHYTQKSLSLSPGK
light: EIAMTQSPATLSVSPGERATLSCRASQSVSSNLAWYQQKPGQAPRLLIYGASTRATGLPARFSGSGSGTEFTLTISSLQSEDFAVYYCQQYNNFWTFGQGTKVEIKRTVAAPSVFIFPPSDEQLKSGTASVVCLLNNFYPREAKVQWKVDNALQSGNSQESVTEQDSKDSTYSLSSTLTLSKADYEKHKVYACEVTHQGLSSPVTKSFNRGEC
scFv-Fc: EVQLVESGGGLIQPGGSLRLSCAASGFTFNTYAMNWVRQAPGKGLEWVARIRSKYNNYATYYADSVKDRFTISRDDSKSTLYLQMNNLRAEDTAVYYCVRHGNFGNDYVSWFAYWGQGTLVTVSSGKPGSGKPGSGKPGSGKPGSQAVVTQEPSLTVSPGGTVTLTCRSSTGAVTTSNYANWVQQKPGQAPRGLIGGTNKRAPGVPARFSGSLLGDKAALTLSGAQPEDEAEYYCALWYSNLWVFGGGTKVTVL[human IgG1 Fc with C220S L234A L235A P329A T366W (EU numbers) cut from this listing]
notes: anti-TSPAN8/anti-CD3
B3 gave an EC50 of 0.12 µg/mL. Compared with the last molecule, the EC50 is about 1.6-fold lower.

B4: BTE-0091 (bispecific antibody)
heavy: QVQLVESGGGVVQPGGSLRLSCAASGFTFSSYGMHWVRQAPGKGLEWVAVIWYDGRNKYYADSVKGRFTISRDNSKNTLYLQMNSLRAEDTAVYYCTRDHSGSGSYYIDYWGQGTLVTVSSASTKGPSVFPLAPSSKSTSGGTAALGCLVKDYFPEPVTVSWNSGALTSGVHTFPAVLQSSGLYSLSSVVTVPSSSLGTQTYICNVNHKPSNTKVDKKVEPKSCDKTHTCPPCPAPEAAGGPSVFLFPPKPKDTLMISRTPEVTCVVVDVSHEDPEVKFNWYVDGVEVHNAKTKPREEQYNSTYRVVSVLTVLHQDWLNGKEYKCKVSNKALAAPIEKTISKAKGQPREPQVYTLPPSRDELTKNQVSLSCAVKGFYPSDIAVEWESNGQPENNYKTTPPVLDSDGSFFLVSKLTVDKSRWQQGNVFSCSVMHEALHNHYTQKSLSLSPGK
light: EIAMTQSPATLSVSPGERATLSCRASQSVSSNLAWYQQKPGQAPRLLIYGASTRATGLPARFSGSGSGTEFTLTISSLQSEDFAVYYCQQYNNFWTFGQGTKVEIKRTVAAPSVFIFPPSDEQLKSGTASVVCLLNNFYPREAKVQWKVDNALQSGNSQESVTEQDSKDSTYSLSSTLTLSKADYEKHKVYACEVTHQGLSSPVTKSFNRGEC
scFv-Fc: EVQLVESGGGLIQPGGSLRLSCAASGFTFNTYAMNWVRQAPGKGLEWVARIRSKYNNYATYYADSVKDRFTISRDDSKSTLYLQMNNLRAEDTAVYYCVRHGNFGNSYVSWFDYWGQGTLVTVSSGKPGSGKPGSGKPGSGKPGSQAVVTQEPSLTVSPGGTVTLTCRSSTGAVTTSNYANWVQQKPGQAPRGLIGGTNKRAPGVPARFSGSLLGDKAALTLSGAQPEDEAEYYCALWYSNLWVFGGGTKVTVL[human IgG1 Fc with C220S L234A L235A P329A T366W (EU numbers) cut from this listing]
notes: anti-TSPAN8/anti-CD3
As for B4, the EC50 was 0.623 µg/mL.
